Measurements taken from the RNAGym collection of RNA variant scans (doi:10.7554/elife.90254).
Read counts are not given, so values of variants with three or more changes are uncertain.

B1: LINE1-full (parent)
chain: UACGUAGGUGGUUUUCCCCUGAUAGUGCUAAGGGGGCCUGGAAGUUUGGACUGGGCAGAGCUCAACACAGCGUGGCAAAGUGGCUGUGGCUAGACUGCCUCUCUGGAUUCCUCGUCACUCAGCAGGGCAUCUCUGAGAGAAAUGCC

Variants of: B1
Experiment: self-cleavage, relative activity (ratio to wild type); higher = more cleavage; in vitro, sequencing; the parent is a self-cleaving ribozyme

| Variant | self-cleavage |
| --- | --- |
| U14A U62C U112C | 0.07 |
| U14A U73C A77G C95U U102C U143C | 0 |
| U14A U100C A142G | 1.39 |
| U14A U104C A136G | 2.3 |
| U14A U108C C133U | 0.87 |
| U14C A22G A77G A79G | 0 |
| U14C A22G A77U A79G | 0.88 |
| U14C A22G C99G | 0.47 |
| U14C A22G G44A A64G A67G A77U A79G A94U U130A | 0 |
| U14C A22G U47G A142G | 1.25 |
| U14C A22G U100A | 0.72 |
| U14C A22G U109C | 0.62 |
| U14C A22U A69G U132C A142G | 0.71 |
| U14C A22U U62C | 0.25 |
| U14C A22U U87A U119C A136U | 0.13 |
| U14C A22U U96A | 0.27 |
| U14C A24C G35A A57U G72A A94U | 0.09 |
| U14C A24G A42G A67U U96A | 0 |
| U14C A24G A59G U73A | 0.32 |
| U14C A24G A59U U91C U96A U109C C128G | 0 |
| U14C A24G U62C U143C | 0.35 |
| U14C A24U U46G A77U U102C | 1.25 |
| U14C A30G U52A G114A | 1.99 |
| U14C A30G U134C A141G | 1.99 |

| Variant | self-cleavage |
| --- | --- |
| U14C A30U U73A | 0.94 |
| U14C A30U U115C U130C U134A | 0.97 |
| U14C A31C U39C U91A | 0 |
| U14C A31G A94U A124C | 0.48 |
| U14C A31U A117G A138G | 0.66 |
| U14C A31U C113A | 0.68 |
| U14C A42G A43U U102C A107G | 0.92 |
| U14C A42G A50U U104C C113U | 0.22 |
| U14C A42G A69G | 1.64 |
| U14C A42G A77G | 1.15 |
| U14C A42G A124G | 0.89 |
| U14C A42G C146U | 1.04 |
| U14C A42G U96C A136G | 0.51 |
| U14C A43C G70A | 0.18 |
| U14C A43G A57U | 0.19 |
| U14C A43G A65U | 0 |
| U14C A43G A79G | 0.77 |
| U14C A43G A121G | 2.06 |
| U14C A43G G86A | 0.13 |
| U14C A43G U47C A57G U62C C76U A79G A107G U108A | 0 |
| U14C A43G U52A U132A | 0.7 |
| U14C A43U A78C G106A A117C | 2.85 |
| U14C A43U C113A | 1.01 |
| U14C A50C U102C A121U | 2.3 |

| Variant | self-cleavage |
| --- | --- |
| U14C A50G A129U | 0.11 |
| U14C A50G A140G | 1.04 |
| U14C A50G U52A U87A | 0.28 |
| U14C A50G U108A | 1.84 |
| U14C A50G U132C | 0.98 |
| U14C A50U C99U U104C | 0.08 |
| U14C A57G A64G U85G A138U | 0 |
| U14C A57G G82A | 0.99 |
| U14C A57G U62C | 0.04 |
| U14C A57U A65G | 0.05 |
| U14C A57U A141U | 0.14 |
| U14C A59C A136G | 0.71 |
| U14C A59G A65G A121G | 0 |
| U14C A59G A77U G126U | 0.17 |
| U14C A59G C118G G125A A140G | 0.13 |
| U14C A59G U85A G97U U108C | 0.11 |
| U14C A59G U87G | 0.21 |
| U14C A59G U109C U130C | 0.48 |
| U14C A59G U112C | 0 |
| U14C A59U U104A U119C | 0.3 |
| U14C A59U U143C | 1.07 |
| U14C A64C A140G | 0.4 |
| U14C A64G U112C | 0.5 |
| U14C A64U A107G A140G | 1.02 |

| Variant | self-cleavage |
| --- | --- |
| U14C A64U U143A | 0.15 |
| U14C A65G A141G | 0.14 |
| U14C A65G C146U | 0.03 |
| U14C A65G U143A | 0 |
| U14C A65U A67U | 0.11 |
| U14C A65U U108C A129G A138G | 0.14 |
| U14C A67G C123U A124G | 0.65 |
| U14C A67G U109C C111A | 0.35 |
| U14C A67G U115C | 0.71 |
| U14C A67U C71A U112C | 0.06 |
| U14C A67U U134A | 0.12 |
| U14C A69G A121U U130C | 0.6 |
| U14C A69G U108C | 0.37 |
| U14C A69G U130C | 0.37 |
| U14C A69U A107G | 0.05 |
| U14C A77G A78G A94G | 0 |
| U14C A77U A79G G88A A117G C133A U143C | 0.03 |
| U14C A77U U115A | 0.73 |
| U14C A78G C118U | 1.67 |
| U14C A78G U85C | 0.06 |
| U14C A78G U109C A136G | 0.17 |
| U14C A78G U119C | 0.6 |
| U14C A78U U115C | 2.41 |
| U14C A79C G114A | 0.59 |

| Variant | self-cleavage |
| --- | --- |
| U14C A79G A140G | 1.22 |
| U14C A79G A141G | 0.9 |
| U14C A79G G83A U96A U115C | 0.04 |
| U14C A79G U100C | 2.3 |
| U14C A79G U104A | 0.71 |
| U14C A92G U115C | 0 |
| U14C A92U G114U U130C | 1.02 |
| U14C A121G A141G | 1.38 |
| U14C A121G G139U C146U | 1.87 |
| U14C A124G C133A G135A | 1.8 |
| U14C A141G U143A | 1.77 |
| U14C A142G C145A | 2.26 |
| U14C C17A U26A | 1.01 |
| U14C C18U U81C A138G | 1.19 |
| U14C C19U A43U U73C A77U | 0.8 |
| U14C C37G A57G A117C A129U U130C | 0.57 |
| U14C C37U G74A U112C U119A | 0.91 |
| U14C C38A A117U | 1.25 |
| U14C C56A U81C | 0.04 |
| U14C C56U C111U A117U A121G U130C | 0.24 |
| U14C C71U U112C | 0.8 |
| U14C C90U U119A | 0.06 |
| U14C C95U A142G | 0.24 |
| U14C C95U U132C | 0.23 |

| Variant | self-cleavage |
| --- | --- |
| U14C C98U U115C | 0.98 |
| U14C C110U A141G | 1.53 |
| U14C C120U U132C | 1.33 |
| U14C G21A U102C A124G U130C | 1.15 |
| U14C G25C U85C C113U U130C | 0.08 |
| U14C G27A U29C | 1.87 |
| U14C G32A G44A | 0.68 |
| U14C G32A U62C U119C A136U | 0.09 |
| U14C G32U A67G | 0.55 |
| U14C G33A A42G A78G U115C | 1.59 |
| U14C G33A A42G U81A U112A U119C | 1.37 |
| U14C G33A U73C A121G | 1.06 |
| U14C G33U U115C A129U U130C | 2.39 |
| U14C G34A U46C U115G U132C | 1.84 |
| U14C G34A U85G A141G | 0.2 |
| U14C G34A U115A G126A C146U | 1.13 |
| U14C G34U A57G | 1.35 |
| U14C G34U U45A C61A U109C U132A | 0.04 |
| U14C G35A A64U C76U U119C | 0.69 |
| U14C G36C A50G | 0.59 |
| U14C G36U C37G U39C | 1.78 |
| U14C G36U C37U U73C | 1.36 |
| U14C G36U U109A | 1.05 |
| U14C G40A U45C U52A A57U A129G | 0.12 |

| Variant | self-cleavage |
| --- | --- |
| U14C G41A U102C A142G | 1.01 |
| U14C G41U G82A | 1.97 |
| U14C G41U U134C | 0.09 |
| U14C G48A U91C A92G | 0.32 |
| U14C G48U A59U G70A | 0.08 |
| U14C G49A A94G | 0.25 |
| U14C G54A U96C C99A A124G | 0.04 |
| U14C G54U U87C | 0.16 |
| U14C G60A U85C A107G | 0 |
| U14C G60U C71U G80A | 0.06 |
| U14C G72A A78G U112C U143C | 1.04 |
| U14C G72A U85C | 0.13 |
| U14C G72A U100C | 0.73 |
| U14C G74A U112C | 0.76 |
| U14C G74U A142U U143C | 0.85 |
| U14C G82U A141G | 2.45 |
| U14C G114A U143A | 1.3 |
| U14C U15A A67U U109C | 0 |
| U14C U15A A136U | 1.36 |
| U14C U15A U87C A141G | 0.48 |
| U14C U15C A94G | 1.06 |
| U14C U15C G74A | 1.27 |
| U14C U15C U20G A43U | 0.89 |
